# Results: the supplement of paper PMC4466236
# In all, about 33,000 sequences were measured (“E-score (dimensionless, -0.5 to 0.5)”: median about -0.058, highest 2% from about 0.35 on). The list shows a part of the results.
# System: MvaT
# Experiment: PBM 8-mer E-score (mean of HK and ME arrays) (E-score (dimensionless, -0.5 to 0.5)); higher = stronger relative binding preference; most listed sequences are background and not binding sites
# How it was run: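 Full-length P. aeruginosa MvaT, with glutathione S-transferase fused to its N-terminus (cloned into pTH6838 by isothermal assembly), was tested by protein binding microarray using a previously described protocol. Two universal double-stranded 60-mer arrays (ME and HK) were used, each with a constant 25-mer primer region and a variable 35-mer region covering all 8-mers. The rank-based 8-mer E-score (-0.5 to 0.5) is the mean of the two arrays, parsed with a custom Python script.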
row,Sequence,PBM 8-mer E-score
1,AATGATGT,0.179
2,GAAGCCTC,-0.36
3,TGAGTCCA,-0.208
4,AGTTCCGG,-0.00523
5,AACTACAA,0.304
6,GCCTTACC,-0.267
7,AACAGCTT,0.05
8,GGAGTAAA,-0.0939
9,ATCGCGCC,-0.0414
10,AACCATAT,0.254
11,CGGAGCGA,-0.238
12,GGTTAGGA,-0.11
13,GCCAAGAA,-0.043
14,TCTCAAAA,0.0618
15,CAAGTGGC,-0.136
16,CACCTGAC,-0.129
17,ATAAGCTG,0.188
18,ATTCGGGG,-0.0391
19,CGGCTCCC,-0.288
20,CGCGCTTC,-0.107
21,ATCGGAGA,-0.102
22,GAACGGCC,-0.248
23,AACTAGCT,0.0966
24,ATGCGTTC,0.0369
25,AATCTGTC,0.0896

row,Sequence,PBM 8-mer E-score
1,GTGAACAA,0.0563
2,ACGATACA,-0.0203
3,ACTACCCC,-0.0705
4,AAACAGGG,-0.041
5,ACCCCGAA,-0.179
6,AAGTCCTA,0.0165
7,AAAGACGC,-0.167
8,ACGCTTGC,-0.172
9,AGTGCTAG,-0.22
10,TATCTCCA,0.167
11,CTACTTGC,0.173
12,AGAGGACG,-0.268
13,CCTGCCAA,-0.136
14,CTATACAC,0.132
15,AGGTTTTA,0.145
16,CAATATGC,0.0377
17,ATCGCGTC,-0.106
18,ACTTGACT,0.0422
19,CGCTCCTA,-0.0562
20,CGCCGCAA,-0.0873
21,CGATTGCC,-0.168
22,AGTGCACG,-0.2
23,AAGTGTAT,0.209
24,CTCGATAC,-0.0806
25,AGCAAAAG,-0.129

row,Sequence,PBM 8-mer E-score
1,CCTAGAAA,-0.00555
2,TACTTAAA,0.302
3,CGCAGGAA,-0.125
4,CCTATCAA,-0.00595
5,CAGCGGCG,-0.314
6,CAGGATGA,-0.161
7,AACGCTGA,0.0104
8,TGTAAAAA,0.208
9,TAGCAAAA,0.141
10,GTGACCAC,-0.2
11,CCTAGACC,-0.368
12,CTACCATA,0.113
13,AACCAGGA,-0.0702
14,CCTTGGTC,-0.147
15,CTATAGAG,-0.125
16,CGCCACGC,-0.232
17,AAAAGCTC,-0.0929
18,CGTGTAAA,0.0939
19,CCCGGTAA,0.0671
20,ACTACTAA,0.258
21,AATCTTTA,0.264
22,TCCCTGAA,-0.14
23,CTAGTCTA,0.0791
24,AACTCTAT,0.128
25,AAATTCGT,0.258

row,Sequence,PBM 8-mer E-score
1,ACCAGTTG,0.0747
2,AATACGGT,0.137
3,GAACTCTC,-0.143
4,AGAAGGCG,-0.261
5,CTGGATCC,-0.197
6,GGGTGGGA,-0.0483
7,GATCCTTA,-0.113
8,ATTACTTG,0.266
9,ATGCGCTG,0.0436
10,ACACGCAT,0.17
11,CACCAAAC,0.0469
12,CCGCCGTA,-0.188
13,CTGTGACC,-0.092
14,GCGCCTAC,-0.236
15,CCCGTGGA,-0.268
16,GAGGAACA,-0.143
17,CCCCCCAA,-0.228
18,ATGAATAA,0.368
19,GACGGACC,-0.291
20,AGGGAACT,-0.0689
21,GCTATGGA,-0.0686
22,ATCTGGGA,-0.123
23,CAAGGGCG,-0.258
24,CTCCTTCC,-0.435
25,ACGCAGAT,0.116

row,Sequence,PBM 8-mer E-score
1,CGCGCATC,-0.204
2,GAATCAGA,-0.0423
3,AGATAGAC,-0.162
4,ATATATGC,0.424
5,ACGCTTGG,-0.247
6,CTGCTTGA,-0.174
7,CAAGATTC,-0.0781
8,ACAGTATC,0.0114
9,AGCTAACT,-0.0152
10,CTACGATA,0.0523
11,GTGGCGCA,-0.113
12,TCCTGAAA,-0.102
13,AGGTTATC,0.0402
14,CCGTCCAC,-0.146
15,AGACTGTA,0.0181
16,ATCACGTC,-0.11
17,AATGAAAA,0.138
18,AATGGTGG,-0.157
19,ACTGTCGG,-0.0997
20,AGATCGGG,-0.146
21,GCGTCGGA,-0.267
22,ATAAAAGA,0.263
23,GCTCTAAA,0.0346
24,CCTATTCC,-0.0259
25,TAAACACA,0.285

row,Sequence,PBM 8-mer E-score
1,ATGTCAAC,0.0323
2,AGGATCCG,-0.289
3,ACAAAGCC,0.0647
4,AGGTTCGA,-0.0906
5,AATGATTG,0.0829
6,CGGTTTAG,-0.0711
7,AGCAGAAT,0.157
8,GGGTGACA,-0.126
9,AGTCGGAA,0.0122
10,TCCAGCAA,-0.0123
11,CTCCTGTC,-0.282
12,ATAAGGAG,0.137
13,GCCGTTAC,0.00658
14,CTCCATCA,-0.189
15,GGTGGCAC,-0.179
16,CGAAACCG,-0.166
17,CAACTATC,0.124
18,GCCACAGA,-0.11
19,AATGGGCA,-0.151
20,CAACAAGG,-0.0563
21,CTGTGCAC,-0.0759
22,AAAAATGA,0.169
23,CAAAGGAC,-0.0682
24,ATTTTTAA,0.323
25,CGATGGTA,-0.146

row,Sequence,PBM 8-mer E-score
1,ACGCGCCA,-0.192
2,AGTCAAGC,-0.119
3,GCAACACC,-0.193
4,AATAACGG,0.319
5,GACGATGC,-0.228
6,CCACCCAA,0.000179
7,AGCTACGG,-0.24
8,TCGCGAGA,0.0128
9,AGAATTTA,0.262
10,TCGTTTAA,0.252
11,AATGATGA,0.13
12,CTGGGATA,-0.0515
13,CCAGGGGA,-0.236
14,CTTACCGA,-0.0946
15,AAGCATGA,-0.118
16,TCGCGACA,-0.14
17,TCGCTCAA,-0.037
18,TCGCAAAA,0.0907
19,GGCGATAC,-0.146
20,GATACGCA,-0.211
21,GGCAAGAA,-0.156
22,GGGGCACA,-0.0648
